Measurements published in paper PMC6688997 (Nature Communications, 2019).
Like-named read-outs stand apart in the source and are kept apart here.

Key:
[1] = test system: JFCR-165 patient-derived cells; test: CellTiter-Glo cell viability assay; assay type: cell-based, human; conditions: 72–120 h
[2] = test system: MGH193-1B patient-derived cells; test: CellTiter-Glo cell viability assay; conditions: 72–120 h
[3] = test system: JFCR-168 patient-derived cells; test: CellTiter-Glo cell viability assay; assay type: cell-based, human; conditions: 72–120 h
[4] = test system: HCC78xe3-SLC34A2-ROS1-WT xenograft; assay type: in vivo, mouse; conditions: DS6051b 50mg/kg, in mm³
[5] = test system: HCC78xe3-SLC34A2-ROS1-G2032R xenograft; assay type: in vivo, mouse; conditions: DS6051b 50mg/kg, in mm³

C[C@@H](N)COc1ccc(-c2cnc3ccc(N[C@H](C)c4cccc(F)c4)nn23)cc1.O=C(O)CCCCC(=O)O [DS-6051b] was tested, and the “Sensitivity (cell viability)” value [1] was “sensitive”, the “Sensitivity (cell viability)” value [2] was “sensitive” and the “Sensitivity (cell viability)” value [3] was “sensitive”. For the same compound, the “Tumor volume LWW/2, Mean” value ([4]; day 0, group mean) was 138.4, the “Tumor volume LWW/2, Mean” value ([4]; day 3, group mean) was 80.4 and the “Tumor volume LWW/2, Mean” value ([4]; day 6, group mean) was 46.1. For the same compound, the “Tumor volume LWW/2, Mean” value ([4]; day 9, group mean) was 37.3, the “Tumor volume LWW/2, Mean” value ([4]; day 14, group mean) was 19.5 and the “Tumor volume LWW/2, Mean” value ([4]; day 17, group mean) was 22.2. The “Tumor volume LWW/2, Mean” value ([4]; day 21, group mean) was 15.2, the “Tumor volume LWW/2, Mean” value ([4]; day 25, group mean) was 10.4 and the “Tumor volume LWW/2, Mean” value ([4]; day 28, group mean) was 6.6. The “Tumor volume LWW/2, Mean” value ([4]; day 31, group mean) was 8.3, the “Tumor volume LWW/2, Mean” value ([4]; day 35, group mean) was 8.2 and the “Tumor volume LWW/2, Mean” value ([4]; day 38, group mean) was 8.5. For the same compound, the “Tumor volume LWW/2, Mean” value ([4]; day 43, group mean) was 9.5, the “Tumor volume LWW/2, Mean” value ([4]; day 48, group mean) was 4.0 and the “Tumor volume LWW/2, Mean” value ([4]; day 52, group mean) was 6.2. The “Tumor volume LWW/2, Mean” value ([4]; day 55, group mean) was 7.4, the “Tumor volume LWW/2, Mean” value ([5]; day 0, group mean) was 141.5 and the “Tumor volume LWW/2, Mean” value ([5]; day 3, group mean) was 113.0. For the same compound, the “Tumor volume LWW/2, Mean” value ([5]; day 6, group mean) was 113.4, the “Tumor volume LWW/2, Mean” value ([5]; day 9, group mean) was 93.0 and the “Tumor volume LWW/2, Mean” value ([5]; day 14, group mean) was 73.9. For the same compound, the “Tumor volume LWW/2, Mean” value ([5]; day 17, group mean) was 80.0, the “Tumor volume LWW/2, Mean” value ([5]; day 21, group mean) was 97.0 and the “Tumor volume LWW/2, Mean” value ([5]; day 25, group mean) was 137.7. For the same compound, the “Tumor volume LWW/2, Mean” value ([5]; day 28, group mean) was 153.3, the “Tumor volume LWW/2, Mean” value ([5]; day 31, group mean) was 169.0 and the “Tumor volume LWW/2, Mean” value ([5]; day 35, group mean) was 231.4. For the same compound, the “Tumor volume LWW/2, Mean” value ([5]; day 38, group mean) was 224.1, the “Tumor volume LWW/2, Mean” value ([5]; day 43, group mean) was 291.9 and the “Tumor volume LWW/2, Mean” value ([5]; day 48, group mean) was 260.1. For the same compound, the “Tumor volume LWW/2, Mean” value ([5]; day 52, group mean) was 339.1 and the “Tumor volume LWW/2, Mean” value ([5]; day 55, group mean) was 309.8.

COc1cc(N2CCC(N3CCN(C)CC3)CC2)ccc1Nc1ncc(Cl)c(Nc2ccccc2P(C)(C)=O)n1 [brigatinib] was tested, and the “Sensitivity (cell viability)” value [1] was “sensitive”, the “Sensitivity (cell viability)” value [2] was “sensitive” and the “Sensitivity (cell viability)” value [3] was “sensitive”.

With COc1cc2nccc(Oc3ccc(NC(=O)C4(C(=O)Nc5ccc(F)cc5)CC4)cc3)c2cc1OC [cabozantinib] the “Sensitivity (cell viability)” value [1] was “sensitive”, the “Sensitivity (cell viability)” value [2] was “sensitive” and the “Sensitivity (cell viability)” value [3] was “sensitive”.

Cc1cc(Nc2ncc(Cl)c(Nc3ccccc3S(=O)(=O)C(C)C)n2)c(OC(C)C)cc1C1CCNCC1 [ceritinib] was tested, and the “Sensitivity (cell viability)” value [1] was “sensitive”, the “Sensitivity (cell viability)” value [2] was “sensitive” and the “Sensitivity (cell viability)” value [3] was “sensitive”.

In the case of C[C@@H](Oc1cc(-c2cnn(C3CCNCC3)c2)cnc1N)c1c(Cl)ccc(F)c1Cl [crizotinib, reference compound], the “Sensitivity (cell viability)” value [1] is reported as “sensitive” and the “Sensitivity (cell viability)” value [3] is reported as “sensitive”.

In the case of CN1CCN(c2ccc(C(=O)Nc3n[nH]c4ccc(Cc5cc(F)cc(F)c5)cc34)c(NC3CCOCC3)c2)CC1 [entrectinib], the “Sensitivity (cell viability)” value [1] is reported as “sensitive”, the “Sensitivity (cell viability)” value [2] is reported as “sensitive” and the “Sensitivity (cell viability)” value [3] is reported as “sensitive”.

C[C@H]1Oc2cc(cnc2N)-c2c(nn(C)c2C#N)CN(C)C(=O)c2ccc(F)cc21 [lorlatinib] was tested, and the “Sensitivity (cell viability)” value [1] was “sensitive”, the “Sensitivity (cell viability)” value [2] was “sensitive” and the “Sensitivity (cell viability)” value [3] was “sensitive”.
